Experimental data published in the supplement of paper PMC10037445.
Whole data set: some 2,900 compounds, median “IRF Lucia reporter activity, fold change vs agonist alone” near 0.9, cut for the highest 2% near 2.8. The list shows a part of the results.

Tests used:
RAW-Dual [1] = test: IRF Lucia reporter activity, fold change vs agonist alone; higher = enhanced IRF activity; details: agonist: MPLA (TLR4) […]
Method in brief: (§1)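 RAW-Dual macrophages (50,000 cells/well in DMEM, 384-well plates) received 50 nL of library stock by pin tool, then a PRR agonist 1 h later, and were kept at 37 °C, 5% CO2. After 20 hours, supernatant was read for IRF by QuantiLuc luminescence and for NF-κB by QuantiBlue absorbance at 620 nm. Reporter activity is fold change over agonist-alone wells. Cytotoxic wells had IncuCyte confluency below 70% of agonist controls in both mask sets.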

RAW-Dual [2] = test: IRF Lucia reporter activity, fold change vs agonist alone; cytotoxicity flag (confluency mask): not cytotoxic; higher = enhanced IRF activity
Method in brief: as §1

RAW-Dual [3] = test: IRF Lucia reporter activity, fold change vs agonist alone; cytotoxicity flag (confluency mask): cytotoxic (confluency <70% of control); higher = enhanced IRF activity
Method in brief: as §1

[4] = agonist: 3'3'-cGAMP (STING) 10 ug/mL
[5] = library stock concentration (final ~1000-fold dilution): 10 mM, cytotoxicity flag (confluency mask): not cytotoxic
[6] = library stock concentration (final ~1000-fold dilution): 10 mM, cytotoxicity flag (confluency mask): cytotoxic (confluency <70% of control)

C=C(C)C1CCC2(C)CCC3(C)C(CCC4C5(C)CCC(O)C(C)(C)C5CCC43C)C12 (configuration not stated)
IRF Lucia reporter activity (RAW-Dual [1]; library stock concentration (final ~1000-fold dilution): 2 mM, cytotoxicity flag (confluency mask): not cytotoxic): 1.2

C=C(C)C1CCC2(C)CCC3(C)C(CCC4C5(C)CCC(O)C(C)(C)C5CCC43C)C12 (configuration not stated) (library stock concentration (final ~1000-fold dilution): 2 mM)
IRF Lucia reporter activity (RAW-Dual [2]; [4]): 1 | IRF Lucia reporter activity (RAW-Dual [2]; agonist: LPS (TLR4) 0.1 ug/mL): 0.988

CC(C)=CCC/C(C)=C/CC/C(C)=C/CSc1ccccc1C(=O)O (library stock concentration (final ~1000-fold dilution): 10 mM)
IRF Lucia reporter activity (RAW-Dual [2]; [4]): 0.776 | IRF Lucia reporter activity (RAW-Dual [2]; agonist: LPS (TLR4) 0.1 ug/mL): 0.854

Br.CN(C)CCCC1(c2ccc(F)cc2)OCc2cc(C#N)ccc21 (configuration not stated)
IRF Lucia reporter activity (RAW-Dual [1]; [5]): 1.1

Br.CN(C)CCCC1(c2ccc(F)cc2)OCc2cc(C#N)ccc21 (configuration not stated) (library stock concentration (final ~1000-fold dilution): 10 mM)
IRF Lucia reporter activity (RAW-Dual [2]; [4]): 0.98 | IRF Lucia reporter activity (RAW-Dual [2]; agonist: LPS (TLR4) 0.1 ug/mL): 1.08

O=C1C(O)=C(O)OC1C(O)CO (configuration not stated) (library stock concentration (final ~1000-fold dilution): 10 mM)
IRF Lucia reporter activity (RAW-Dual [2]; [4]): 0.914 | IRF Lucia reporter activity (RAW-Dual [2]; agonist: LPS (TLR4) 0.1 ug/mL): 1.11

CC(NC(=O)c1ncnc(N)c1Cl)c1ncc(C(=O)Nc2cc(C(F)(F)F)c(Cl)cn2)s1 (configuration not stated)
IRF Lucia reporter activity (RAW-Dual [1]; [5]): 0.914

CC(NC(=O)c1ncnc(N)c1Cl)c1ncc(C(=O)Nc2cc(C(F)(F)F)c(Cl)cn2)s1 (configuration not stated) (library stock concentration (final ~1000-fold dilution): 10 mM)
IRF Lucia reporter activity (RAW-Dual [2]; [4]): 0.906 | IRF Lucia reporter activity (RAW-Dual [2]; agonist: LPS (TLR4) 0.1 ug/mL): 0.968

CCCCCCCCCCCC1=C(O)C(=O)C=C(O)C1=O (library stock concentration (final ~1000-fold dilution): 10 mM)
IRF Lucia reporter activity (RAW-Dual [3]; [4]): 0.258 | IRF Lucia reporter activity (RAW-Dual [3]; agonist: LPS (TLR4) 0.1 ug/mL): 0.214

CCCCCCCCCCCC1=C(O)C(=O)C=C(O)C1=O
IRF Lucia reporter activity (RAW-Dual [1]; [6]): 0.343

CCC1OC(=O)C(C)C(OC2CC(C)(OC)C(O)C(C)O2)C(C)C(OC2OC(C)CC(N(C)C)C2O)C(C)(O)CC(C)C(=O)C(C)C(O)C1(C)O.N#CS (configuration not stated)
IRF Lucia reporter activity (RAW-Dual [1]; [5]): 1.15

CCC1OC(=O)C(C)C(OC2CC(C)(OC)C(O)C(C)O2)C(C)C(OC2OC(C)CC(N(C)C)C2O)C(C)(O)CC(C)C(=O)C(C)C(O)C1(C)O.N#CS (configuration not stated) (library stock concentration (final ~1000-fold dilution): 10 mM)
IRF Lucia reporter activity (RAW-Dual [2]; [4]): 0.737 | IRF Lucia reporter activity (RAW-Dual [2]; agonist: LPS (TLR4) 0.1 ug/mL): 1.51

N#CC1CC2CC2N1C(=O)C(N)C12CC3CC(CC(O)(C3)C1)C2 (configuration not stated) (library stock concentration (final ~1000-fold dilution): 10 mM)
IRF Lucia reporter activity (RAW-Dual [2]; [4]): 0.977 | IRF Lucia reporter activity (RAW-Dual [2]; agonist: LPS (TLR4) 0.1 ug/mL): 1.05

N#CC1CC2CC2N1C(=O)C(N)C12CC3CC(CC(O)(C3)C1)C2 (configuration not stated)
IRF Lucia reporter activity (RAW-Dual [1]; [5]): 0.878

O=C(O)CNC(=O)c1nc(Cl)c2ccccc2c1O (library stock concentration (final ~1000-fold dilution): 10 mM)
IRF Lucia reporter activity (RAW-Dual [2]; [4]): 0.934 | IRF Lucia reporter activity (RAW-Dual [2]; agonist: LPS (TLR4) 0.1 ug/mL): 0.912

CCOCc1nc2c(N)nc3ccccc3c2n1CC(C)(C)O (library stock concentration (final ~1000-fold dilution): 3.2 mM)
IRF Lucia reporter activity (RAW-Dual [2]; [4]): 0.759 | IRF Lucia reporter activity (RAW-Dual [2]; agonist: LPS (TLR4) 0.1 ug/mL): 0.422

Cc1nn(C)c2c1C(c1ccc(C(F)(F)F)cc1)C(C#N)=C(N)O2 (configuration not stated) (library stock concentration (final ~1000-fold dilution): 10 mM)
IRF Lucia reporter activity (RAW-Dual [2]; [4]): 0.682 | IRF Lucia reporter activity (RAW-Dual [2]; agonist: LPS (TLR4) 0.1 ug/mL): 0.94

CN1CCCN(C(=O)c2cccc(-c3ccc(/C=C4/C(=O)Nc5ccc(Cl)cc54)o3)c2)CC1.Cl (library stock concentration (final ~1000-fold dilution): 10 mM)
IRF Lucia reporter activity (RAW-Dual [3]; [4]): 0.02 | IRF Lucia reporter activity (RAW-Dual [3]; agonist: LPS (TLR4) 0.1 ug/mL): 0.0459

CN1CCCN(C(=O)c2cccc(-c3ccc(/C=C4/C(=O)Nc5ccc(Cl)cc54)o3)c2)CC1.Cl
IRF Lucia reporter activity (RAW-Dual [1]; [6]): 0.0337

COc1ccc2cc1Oc1ccc(cc1)CC1c3c(cc4c(c3Oc3cc5c(cc3OC)CCN(C)C5C2)OCO4)CCN1C (configuration not stated)
IRF Lucia reporter activity (RAW-Dual [1]; [6]): 0.205

COc1ccc2cc1Oc1ccc(cc1)CC1c3c(cc4c(c3Oc3cc5c(cc3OC)CCN(C)C5C2)OCO4)CCN1C (configuration not stated) (library stock concentration (final ~1000-fold dilution): 10 mM)
IRF Lucia reporter activity (RAW-Dual [3]; [4]): 0.704 | IRF Lucia reporter activity (RAW-Dual [3]; agonist: LPS (TLR4) 0.1 ug/mL): 0.12

CN(C)CCC=C1c2ccccc2C=Cc2ccccc21.Cl (library stock concentration (final ~1000-fold dilution): 10 mM)
IRF Lucia reporter activity (RAW-Dual [3]; [4]): 0.475 | IRF Lucia reporter activity (RAW-Dual [3]; agonist: LPS (TLR4) 0.1 ug/mL): 1.69

CN(C)CCC=C1c2ccccc2C=Cc2ccccc21.Cl
IRF Lucia reporter activity (RAW-Dual [1]; [6]): 1.17

CC(=O)c1ccc2c(c1)c1cc(C(C)=O)ccc1n2CCNC(C)C.Cl (library stock concentration (final ~1000-fold dilution): 10 mM)
IRF Lucia reporter activity (RAW-Dual [3]; [4]): 0.00914 | IRF Lucia reporter activity (RAW-Dual [3]; agonist: LPS (TLR4) 0.1 ug/mL): 0.0119

Cc1cc(-c2ccc(CC(=O)Nc3ccc(-c4cccnc4)cc3)cc2)ccn1
IRF Lucia reporter activity (RAW-Dual [1]; [5]): 0.665

Cc1cc(-c2ccc(CC(=O)Nc3ccc(-c4cccnc4)cc3)cc2)ccn1 (library stock concentration (final ~1000-fold dilution): 10 mM)
IRF Lucia reporter activity (RAW-Dual [2]; [4]): 0.6 | IRF Lucia reporter activity (RAW-Dual [2]; agonist: LPS (TLR4) 0.1 ug/mL): 0.636
